According to patent publication US20250186386A1, “METHODS OF REDUCING THE NEED FOR PERIPHERAL ARTERIAL REVASCULARIZATION IN A STATIN-TREATED SUBJECT” (AMARIN PHARMACEUTICALS IRELAND LIMITED, priority 2018, published 2025):

Assay: REDUCE-IT: treatment-emergent adverse events of the safety population

CC/C=C\C/C=C\C/C=C\C/C=C\C/C=C\CCCC(=O)OCC [AMR101, icosapent ethyl]
Serious TEAE Leading to Withdrawal of Study Drug, %: (2.2%)
